# Test results reported in PubChem BioAssay AID1347073 (National Center for Advancing Translational Sciences (NCATS), 2019).
# About 200 (0.44%) of roughly 45,000 compounds were called active. About 7% were inconclusive and are not listed. The call rests on the fitted dose curve; in most records, active means well fitted activation curve with a large enough effect; inconclusive means small, poorly fitted or top-dose-only effect; inactive means no such curve, though single readings can be large or run the other way. Some of the results follow.
# Experiment: qHTS of TDP-43 Inhibitors: NCGC Sytravon Library Screen; further: 0% is about no effect; nearly all actives have a fitted effect of over 55% in size
# Details: yeast TDP-43 toxicity rescue, BacTiter-Glo growth, 24 h; series mostly up to 46.1 µM; growth rescue (activation): at the top concentration
# How it was run: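 TDP-43-expressing yeast, pregrown in raffinose, seeded at OD600 0.02 in galactose medium with compound for 24 hr at 30 deg C. Growth read by BacTiter-Glo luminescence, so rescue of toxicity appears as activation.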
row,Compound,growth rescue (activation)
1,O=S(=O)(NC1CCCCC1Sc1ncccn1)c1ccccc1 (centres undefined),inactive: 8.2%
2,CCNC(=S)Nc1cccc(S(=O)(=O)Nc2ccccc2OC)c1,inactive: -33%
3,Cc1nc(NCCc2ccccc2)sc1C(=O)N(C)C,inactive: 15.4%
4,O=c1cc(O)nc(-c2ccc(Cl)cc2)s1,inactive: -0.639%
5,COc1cc(/C=N/NC(=O)CNC(=O)c2cccs2)ccc1O,inactive: -1.7%
6,COc1cccc(O)c1CN1CCC(C(=O)Nc2ccc(-c3cccc(C)c3)cc2)CC1,inactive: 16.2%
7,NC(=O)c1nnn(-c2ccccc2)c1N,inactive: -30.2%
8,Cc1c(NC(=S)NC(=O)c2ccc(-c3ccc(Cl)cc3)o2)cccc1C(=O)O,inactive: 8.53%
9,CCc1ccc(CN(C)CC(O)COc2cccc3ccccc23)cc1 (centres undefined),inactive: -3.95%
10,CCCCN(C(=O)c1ccc(C#N)cc1)c1c(N)n(CCC)c(=O)[nH]c1=O,inactive: -7.31%
11,COc1ccc(NC(=O)Nc2cccc(F)c2)c(OC)c1,inactive: -7.36%
12,CCc1ccc(NC(=O)C(=O)N/N=C(\C)CC(=O)NCCOC)cc1,inactive: 15.3%
13,O=C(c1cc(-c2cccc(O)c2)on1)N1CCCC1,inactive: -11.2%
14,CCOCCCNC(=O)CCc1ccc(-n2cnc3cccnc32)cc1,inactive: -4.59%
15,COc1cc(/C=C/C(=O)NC(C)C2CC3CCC2C3)cc(OC)c1OC (centres undefined),inactive: 10.1%
16,CCn1c2ccccc2c2nnc(SCC(=O)c3c(N)n(C)c(=O)n(C)c3=O)nc21,inactive: 11.4%
17,CC(C)CNC(=O)c1nn(Cc2ccccc2)c(=O)c2ccccc12,inactive: 6.21%
18,Nc1cc2c(cc1[N+](=O)[O-])OCO2,inactive: 15.8%
19,COc1ccc(NC(=O)Nc2c[nH]c(=O)[nH]c2=O)cc1OC,inactive: -5.7%
20,CSCCC(NC(=O)c1ccc([N+](=O)[O-])cc1Cl)C(=O)OCC(=O)NCCCc1ccccc1 (centres undefined),inactive: -16%
21,CCOc1ccccc1-c1noc(CCC(=O)Nc2cccnc2)n1,inactive: -3.4%
22,CC1(C(=O)NS(=O)(=O)c2ccccc2Cl)CCN1C(=O)CC(c1ccccc1)c1ccccc1 (centres undefined),inactive: 6.36%
23,CN(CC(=O)Nc1ccc(F)cc1)C(=O)CN1C(=O)NC2(CCCCC2)C1=O,inactive: -3.01%
24,CCOC(=O)C(C)/C(C)=N/NC(=O)c1cc2ccccc2cc1O (centres undefined),inactive: 43%
25,O=C(CN1CCN(S(=O)(=O)N2CCCCCC2)CC1)Nc1cc(Cl)ccc1Cl,inactive: 14.1%
26,CCc1ccccc1N1C(=O)CN(Cc2cc(OC)c(OC)c(OC)c2)C1=S,inactive: 11.8%
27,COc1ccc(CCN2CC(C(=O)Nc3cccc(C(C)=O)c3)CC2=O)cc1OC (centres undefined),inactive: 4.79%

row,Compound,growth rescue (activation)
1,Cc1cc(C)nc(SCc2ccc(C(=O)N/N=C/c3cccc(O)c3O)cc2)n1,inactive: -1.36%
2,Cc1ccc(NC(=O)NCCN2CCN(C(=O)Nc3ccc(C)cc3)CC2)cc1,inactive: -3.51%
3,Cc1ccc(-c2cc(NC=O)c3ncc(-c4cccc(C(=O)N(C)C)c4)n3c2)cc1,inactive: 16.5%
4,Cc1cc(CNC(=O)C2CCC(=O)N(Cc3cccc(C(F)(F)F)c3)C2)no1 (centres undefined),inactive: 3.79%
5,O=[N+]([O-])c1ccc(N2CCN(S(=O)(=O)c3ccccc3)CC2)cc1N1CCc2ccccc2C1,inactive: -0.186%
6,Cc1cccc(N2CCN(C(=O)C3CCN(S(=O)(=O)N4CCOCC4)CC3)CC2C)c1 (centres undefined),inactive: 5.32%
7,CCOc1ccccc1C(=O)NCC(=O)NCC1CCCCC1,inactive: -7.19%
8,COc1ccc(C(=O)OCC(=O)c2ccc3c(c2)NC(=O)CO3)cc1S(=O)(=O)N1CCOCC1,inactive: 9.65%
9,COCc1nnc(NC(=O)c2ccccc2[N+](=O)[O-])s1,inactive: 7.24%
10,O=c1oc(-c2cccc(S(=O)(=O)N3CCOCC3)c2)nc2ccccc12,inactive: 3.69%
11,Cc1ccc(C(=O)N2CCN(C(=O)c3ccco3)CC2)cc1NC(=O)c1ccco1,inactive: 5.41%
12,CC(=O)c1sc(NCc2ccc(C)cc2)nc1C,inactive: -7.06%
13,COc1cccc(CNc2nc(NCC3CC3)nc3ccsc23)c1,inactive: 13.9%
14,NS(=O)(=O)c1cccc(NC(=O)COC(=O)CSCc2ccccc2)c1,inactive: -0.997%
15,COc1cc(/C=C/c2ccc3cccc(O)c3n2)cc(Cl)c1OC,inactive: 10.4%
16,O=C(CN1C(=O)CSc2ccc(S(=O)(=O)N3CCCCCC3)cc21)NCCc1ccccc1,inactive: -2.94%
17,Cc1ccccc1OCCC(=O)OCC(=O)Nc1cc(S(=O)(=O)N2CCOCC2)ccc1Cl,inactive: 7.08%
18,CCCCC(=O)N(C)c1c(CC)nc2c(OCC(=O)c3ccc(F)cc3)cccn12,inactive: 11.7%
19,Cc1ccc(S(=O)(=O)Nc2ccc(F)cc2)cc1C(=O)N1CCOCC1,inactive: 6.18%
20,O=[N+]([O-])c1ccc(-c2csc3[n+]2CCS3)cc1,inactive: -15.4%
21,c1ccc(CN2CCN(C3=Nc4cccc5cccc3c45)CC2)cc1,inactive: 10.8%
22,COCCNC(=O)COc1ccc(N(C)S(=O)(=O)c2ccc3ccccc3c2)cc1,inactive: 11.6%
23,CCC(OC(=O)c1nsc(Cl)c1Cl)C(=O)NCCc1ccccc1 (centres undefined),inactive: 22.5%
24,CCn1ncc(C2=NOC(C(=O)Nc3cccc(O)c3)C2)c1C (centres undefined),inactive: 8.37%
25,COc1ccc(/C=N/NC(=O)CCn2c3ccccc3c3ccccc32)cc1OC,inactive: -8.27%
26,O=C(c1ccccc1NS(=O)(=O)c1ccc(Br)cc1)N1CCOCC1,inactive: -0.277%
27,COC(=O)c1nc(-c2ccccc2)oc1N1CCOCC1,inactive: 14.5%
